Results reported in the supplement of paper PMC12889115.
Some of the results follow. Many values rest on one well or one pass, so single values are uncertain.

What follows are compounds tested on Salmonella enterica serovar Typhimurium SL1344 (assay: bacterial growth OD600 after 18 h in MHB with 0.5 µg/mL polymyxin B; higher = more bacterial growth (less inhibition)). Conditions: 25 µM; polymyxin B 0.5 µg/mL; system: broth.
Description: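 Secondary screen of the 553 primary hits at 25 µM. (i) S. Typhimurium SL1344 grown in Mueller-Hinton broth with 0.5 µg/mL polymyxin B, OD600 read after 18 h. (ii) SAFIRE assay: RAW 264.7 macrophages infected with S. Typhimurium sifB::gfp (MOI 30); compound added 2 h post-infection; cells fixed at 18 h; GFP-positive pixel fraction per macrophage imaged by confocal microscopy and expressed as % of DMSO control.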
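Also: polymyxin B level opens the outer membrane while sparing the inner membrane, with novobiocin wells as reference growth inhibitor.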

| Structure (SMILES) | bacterial growth OD600 |
| --- | --- |
| Cc1cc(-c2nn(-c3ccccc3F)cc2CN(C)Cc2ccon2)c(C)s1 | 0.003 |
| Cc1ccc(F)cc1S(=O)(=O)N1CCCC(CO)(Cc2cccc(Cl)c2)C1 (stereo not drawn) | -0.01 |
| CN(C)C1(C(=O)N2CCCC2c2ccc(F)cc2)Cc2ccccc2C1 (stereo not drawn) | 0.017 |
| CCOC(=O)C1(Cc2cccc(C(F)(F)F)c2)CCN(C(=O)Cc2nonc2C)CC1 | 0.623 |
| OCC1CCCCN1c1ccc(-c2nc(CCc3ccccc3)no2)cn1 (stereo not drawn) | 0.004 |
| O=C(CN1CC(c2ccccc2)CC1=O)N(Cc1ccncc1)Cc1cccc(OCCc2ccc(F)cc2)c1 (stereo not drawn) | -0.005 |
| COc1ccc(C(=O)N2CCCC(Nc3ccc(C(C)C)cc3)C2)cc1F (stereo not drawn) | 0.004 |
| Cc1oc(-c2cccc(C(F)(F)F)c2)nc1CN(Cc1ccccc1)C[C@@H]1CCC(=O)N1 | -0.006 |
| CC1CCN(C(=O)CC2(c3ccc(-c4ccccc4)cc3)CC(=O)N(C)C2=O)CC1 (stereo not drawn) | 0.001 |
| Cc1oc(-c2cccc(Oc3ccccc3)c2)nc1CN1CCN(c2cnccn2)CC1 | -0.001 |
| Cc1nc(CC(=O)N(Cc2ccncc2)Cc2cccc(OCCc3ccc(F)cc3)c2)cs1 | 0.001 |
| COc1cc(CN2CCOc3ccc(CN4CCc5sccc5C4)cc3C2)cc2c1OCO2 | 0.002 |
| CO[C@H]1[C@H](NC(=O)c2ccncc2)c2ccccc2C12CCN(C(=O)c1ccc(CC(C)C)cc1)CC2 | 0.001 |
| CCOC(=O)C1(CCc2ccccc2)CCCN(C(=O)c2ccc(OC)o2)C1 (stereo not drawn) | 0.003 |
| OCC1(Cc2cccc(Cl)c2)CCCN(Cc2ccc(F)c(F)c2)C1 (stereo not drawn) | 0.001 |
| O=C(NCCC1=CCCCC1)C1CC12CCN(C(=O)CCc1ccc3c(c1)OCO3)CC2 (stereo not drawn) | 0.52 |
| Cc1cnccc1CN(C)C(=O)CC(c1cccc(O)c1)c1cccc(Cl)c1 (stereo not drawn) | 0.002 |
| O=C(NC1(c2ccccc2)CC1)c1cc(COc2ccc(F)c(F)c2)on1 | 0.003 |
